The values that follow come from paper PMC6212790.

This is one part of the list. At the low end of the ranking the order means little.

This assay addresses T1, GST-Rok-C97-191 (UniProt O34857).
T1 sequence: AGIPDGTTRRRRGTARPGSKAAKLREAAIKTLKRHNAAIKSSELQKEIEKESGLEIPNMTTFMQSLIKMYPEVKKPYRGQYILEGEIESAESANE
Briefly: protein binding microarray.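 Note: rank score from −0.5 (least bound) to 0.5 (best bound).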 Particulars: Rok is a gene silencer of Bacillus subtilis; high values mean tight binding; most listed sequences are background and not binding sites; double strand, one strand shown.
As for CAGGGCTC, the binding signal is -0.321 E-score.

On to GGGGCGTA, for which the binding signal is -0.32 E-score.

Turning to GGCGGATA, the binding signal is -0.0808 E-score.

As to GTAGGCGA, the binding signal was -0.0223 E-score.

CCACTGCC: the binding signal is -0.228 E-score.

TAGCTTGA had a binding signal of 0.171 E-score.

CCGAATGA: the binding signal was determined as 0.1 E-score.

In turn, ACTCATTG returned a binding signal of 0.0742 E-score.

As for CGGGTGTA, the binding signal was -0.0869 E-score.

Take AACTCAGA: the binding signal was 0.111 E-score.

As for CGGAACAC, the binding signal is -0.166 E-score.

As for AACCGACT, the binding signal was -0.0777 E-score.

For the sequence GGTGAGTA, the binding signal was 0.216 E-score.

As for GCTCATGA, the binding signal was -0.0999 E-score.

In the case of GATTTCAC, the binding signal is -0.175 E-score.

With AACAACGC, the binding signal stood at 0.154 E-score.

For the sequence GACAGTCA, the binding signal was -0.111 E-score.

On to CGCTGGAG, for which the binding signal is -0.0371 E-score.

Regarding CCGTTTAG, the binding signal was -0.187 E-score.

Turning to AAAAACTC, the binding signal turned out to be 0.113 E-score.

ATGGTGTA displayed a binding signal of 0.152 E-score.

In turn, CACGCTAC showed a binding signal of 0.218 E-score.

As to CCCCGAAA, the binding signal was -0.205 E-score.

As for GAAGCGCA, the binding signal worked out at 0.0214 E-score.

In turn, AGCGAAGA yielded a binding signal of 0.00338 E-score.

ACAGATAC gave a binding signal of 0.252 E-score.

The sequence ATTATGCC showed a binding signal of 0.103 E-score.

In the case of GCTGCCCC, the binding signal is -0.239 E-score.

Turning to ATGACACA, the binding signal was -0.028 E-score.

For the sequence GCGGTTGA, the binding signal is -0.0628 E-score.

Consider ATGAGGCC, for which the binding signal was -0.0546 E-score.

Turning to CGTTAACC, the binding signal was -0.00653 E-score.

As to GCAACCGA, the binding signal is -0.104 E-score.

GCGAAATA came in with a binding signal of 0.176 E-score.

Sequence CTAATTAG gave a binding signal of 0.362 E-score.

Take ACACATCC: the binding signal was -0.172 E-score.

As for CTAAGGCA, the binding signal was -0.0227 E-score.

As to GCTGTGGA, the binding signal is -0.17 E-score.

In turn, CAAGTTCA came in with a binding signal of 0.034 E-score.

Turning to TCCCGTCA, the binding signal was -0.215 E-score.

In the case of CGTTGGGA, the binding signal was -0.225 E-score.

As for CATTCTCC, the binding signal is -0.0543 E-score.

As for AAGAGCCA, the binding signal was -0.103 E-score.

Regarding CGGCCGCC, the binding signal was -0.431 E-score.

For CGAACACC, the binding signal is -0.163 E-score.

ATTCCATG gave a binding signal of 0.0866 E-score.

Regarding ACGCCAGG, the binding signal was -0.0577 E-score.

In the case of CATGTGAG, the binding signal was -0.181 E-score.

Take AGATCGCG: the binding signal was 0.0472 E-score.

ATTTAGAC came in with a binding signal of 0.0917 E-score.

With TCTCCCCA, the binding signal was -0.181 E-score.

For GAGGCACA, the binding signal came to 0.00837 E-score.

Regarding ACGGTCAG, the binding signal is -0.0264 E-score.

The sequence GCGCTGTA came in with a binding signal of 0.0592 E-score.

Turning to GTTTTTCA, the binding signal is -0.192 E-score.

On to GAAGCGCC, for which the binding signal was -0.235 E-score.

The sequence AAAGTTCT registered a binding signal of 0.145 E-score.

In the case of GGTAGCGA, the binding signal was found to be 0.0646 E-score.

Take ATTTTAGA: the binding signal was 0.0762 E-score.

Take GTTTCAGA: the binding signal stood at 0.126 E-score.

Consider ACGATGTG, for which the binding signal was -0.0382 E-score.

On to CATTGGCC, for which the binding signal was -0.226 E-score.

In the case of CGGTAAAC, the binding signal was found to be 0.0274 E-score.

Consider ACGCAAAG, for which the binding signal is -0.12 E-score.

AAATGTTA came in with a binding signal of 0.091 E-score.

Regarding CCGACAGC, the binding signal is -0.206 E-score.

Consider CTTCCACC, for which the binding signal is -0.294 E-score.

The sequence ATCTTGTC showed a binding signal of 0.14 E-score.

As to GACCCCGC, the binding signal is -0.24 E-score.

Regarding CGTACACA, the binding signal amounted to 0.112 E-score.

For the sequence AAAGAAGC, the binding signal is -0.118 E-score.

Consider CTGGGCTA, for which the binding signal was -0.112 E-score.

Regarding AGTAGCCA, the binding signal is -0.0763 E-score.

Turning to CCTATCCA, the binding signal was -0.0657 E-score.

For the sequence CAACATGA, the binding signal is -0.049 E-score.

In the case of AGCTGCGA, the binding signal is -0.0575 E-score.

Take GGGGAGAC: the binding signal is -0.222 E-score.

As for CTGACAGA, the binding signal came to 0.0178 E-score.

ATATAATC registered a binding signal of 0.201 E-score.

Sequence AACTTGCT registered a binding signal of 0.0697 E-score.

For the sequence AGGGTAGC, the binding signal was -0.0772 E-score.

With ACGGCTAT, the binding signal was 0.0653 E-score.

Sequence ATAAGGGA displayed a binding signal of 0.0164 E-score.

CTGTAGAC gave a binding signal of 0.031 E-score.

Turning to ATGGAGCC, the binding signal is -0.318 E-score.

For CAGTCTCA, the binding signal was -0.0929 E-score.

On to GACAACCC, for which the binding signal was -0.277 E-score.

As for AAGTGCAG, the binding signal is -0.0846 E-score.

Sequence GGTAGAAC gave a binding signal of 0.4 E-score.

For the sequence GCGACTAA, the binding signal was -0.148 E-score.

On to CCAAGCTC, for which the binding signal is -0.212 E-score.

Turning to AAGTCAGG, the binding signal was -0.0615 E-score.

Take CCTCCTAG: the binding signal was -0.0673 E-score.

In turn, TATGAGCA came in with a binding signal of 0.0159 E-score.

On to CTTGTCAC, for which the binding signal is -0.0553 E-score.

As for AGTGATAT, the binding signal came to 0.267 E-score.

With CGAAGTGA, the binding signal is -0.0056 E-score.

Regarding AATAGCCT, the binding signal is -0.0495 E-score.

Regarding ACACGTGG, the binding signal is -0.00456 E-score.

With TGTGTCAA, the binding signal was -0.222 E-score.

In the case of AGTCGATG, the binding signal is -0.141 E-score.

CAGCTATC returned a binding signal of 0.156 E-score.

Regarding CGTAAGAA, the binding signal stood at 0.0624 E-score.

Consider CCTGTATC, for which the binding signal was -0.00872 E-score.

Sequence AACACAGT yielded a binding signal of 0.0134 E-score.

On to TAATGATA, for which the binding signal amounted to 0.184 E-score.

ACATCCTA returned a binding signal of 0.134 E-score.

AATACGTG registered a binding signal of 0.145 E-score.

In the case of TGGGTGAA, the binding signal was found to be 0.135 E-score.

Regarding GCGATAAA, the binding signal stood at 0.0616 E-score.

With CAGCCTGG, the binding signal was -0.2 E-score.

Take AGCTAAAA: the binding signal worked out at 0.208 E-score.

As to CCGTTGAA, the binding signal was -0.0578 E-score.

As for CGAATGCA, the binding signal is -0.0901 E-score.

TGTAGACA yielded a binding signal of 0.0255 E-score.

GTGCAGTA displayed a binding signal of 0.196 E-score.

Turning to CCATTGGC, the binding signal was -0.0209 E-score.

Take CGCGGATC: the binding signal is -0.0348 E-score.

AACCCATG had a binding signal of 0.192 E-score.

CTCAGTTA had a binding signal of 0.131 E-score.

Turning to ACGCTGTC, the binding signal was -0.0765 E-score.

Take CGTCTCCA: the binding signal is -0.152 E-score.

Turning to CCGCCAAG, the binding signal is -0.312 E-score.

Consider ACCATACG, for which the binding signal turned out to be 0.129 E-score.

Consider CCGGACAC, for which the binding signal was -0.000842 E-score.

Regarding GAAGGCAA, the binding signal is -0.191 E-score.

CTAGGTTC returned a binding signal of 0.0689 E-score.

ACCGTGCA came in with a binding signal of 0.175 E-score.

CCGTTGCC: the binding signal is -0.227 E-score.

For the sequence AGAAAGCA, the binding signal is -0.01 E-score.

GCCGTTTA: the binding signal amounted to 0.00806 E-score.

GAATTGAC displayed a binding signal of 0.0102 E-score.

On to CGACCAAC, for which the binding signal is -0.152 E-score.

On to AAAGCTCC, for which the binding signal is -0.074 E-score.

Consider GTAATAGA, for which the binding signal was determined as 0.284 E-score.

The sequence GGTACAAC showed a binding signal of 0.0521 E-score.

Turning to CTACGAAA, the binding signal worked out at 0.114 E-score.

As for GTCTAGTA, the binding signal came out at 0.154 E-score.

Turning to GACAGAAC, the binding signal was -0.0485 E-score.

In turn, AGTTATTG returned a binding signal of 0.132 E-score.

Regarding CCTCATAA, the binding signal was -0.0664 E-score.

In the case of CCCTATGA, the binding signal was -0.0838 E-score.

As for CCGAGTGA, the binding signal is -0.218 E-score.

CTGCGAAA: the binding signal is -0.215 E-score.

With ACTTTACT, the binding signal was determined as 0.0715 E-score.

As to CTAGCGCC, the binding signal is -0.119 E-score.

CGGTCTAA: the binding signal is -0.0401 E-score.

For AGCGTGCG, the binding signal was -0.222 E-score.

Turning to GAGCTCGA, the binding signal was determined as 0.0407 E-score.

For CCTTACCC, the binding signal is -0.0838 E-score.

For AGACAAAG, the binding signal is -0.0928 E-score.

For the sequence CGGTAACC, the binding signal was -0.0179 E-score.

AGTTTAAA came in with a binding signal of 0.245 E-score.

The sequence ATCGATCG came in with a binding signal of 0.031 E-score.

Take ATCTCACG: the binding signal was -0.0602 E-score.

As for AATCATGC, the binding signal is -0.146 E-score.

CCCTAGAA: the binding signal turned out to be 0.122 E-score.

As for ACACGCGT, the binding signal was found to be 0.0894 E-score.

As for CGAGGAAC, the binding signal is -0.152 E-score.

Take ATAGACAC: the binding signal was 0.151 E-score.

In the case of ACCGCCCG, the binding signal was -0.346 E-score.

For the sequence GGTGTTCA, the binding signal was -0.0907 E-score.

With GCCGCCTA, the binding signal is -0.225 E-score.

Regarding GCTCAACA, the binding signal was -0.228 E-score.

ATGTACGC: the binding signal is -0.00331 E-score.

As to AGCACACT, the binding signal is -0.037 E-score.

As for ACCTTTAA, the binding signal was 0.0637 E-score.

Turning to ATCGTTAA, the binding signal was determined as 0.122 E-score.

As to GTCACTCA, the binding signal was 0.0222 E-score.

Take CTCACAAG: the binding signal was -0.122 E-score.

Turning to TTAGCCAA, the binding signal was 0.0797 E-score.

Consider CTTGTTTA, for which the binding signal was -0.0624 E-score.
